Measured values from PubChem BioAssay AID1508624 (National Center for Advancing Translational Sciences (NCATS), 2021).
Out of some 48,000 compounds screened, about 120 (0.25%) were called active. Another 4% or so got no clear call; they are omitted. Calls come from the whole dose curve; as a rule, active = well fitted activation curve with a large enough effect; inconclusive = small, poorly fitted or top-dose-only effect, or another doubt; inactive = no such curve, though single readings can be large or run the other way. Some of the results follow.

experiment: Primary qHTS for Identification of Small Molecule Activators of Huntingtin-Antisense Promoter Activity; details: HEK293 HTT-AS promoter firefly luciferase reporter, 24 h; series mostly up to 57.5 µM; activity change, positive = activation: at the top concentration; note: nearly all actives have a fitted effect of over 55% in size
How it was run: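 HEK293 cells carrying firefly luciferase reporters were seeded at 2,500 per well in Opti-MEM and cultured for 24 h. They were then treated with compounds at up to 57.5 uM final for 24 h at 37 degrees C before Dual-Glo luminescence readout.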

Activity change, positive = activation, inactive:
CCOC(=O)c1c(C)[nH]c(C)c1S(=O)(=O)N(C)CC(=O)Nc1ccc(CC)cc1 -7.01%
CC(C)(C)[C@H](NC(=O)c1ccc(N)c(Cl)c1)C(=O)N1CCC[C@@H]1C(=O)N[C@H](C#N)CC(=O)O -10.4% [at 6 µM, percent change from vehicle, -100% = no light]
CCc1ccc(-n2c(=O)c3c4c(sc3n(CC(=O)c3ccc(Br)cc3)c2=O)CCC4)cc1 -23.4%
Cc1cc(C)c2c(CC(=O)N(Cc3ccc(Cl)cc3)Cc3ccco3)coc2c1 -37.6%
O=C(Nc1ccccc1)c1nc[nH]c1C(=O)O -8.93%
COc1cc(OC)c(N(C)C(=O)c2c(C)oc3ncn(CC(C)C)c(=O)c23)cc1Cl -1.67%
Cc1c(-c2ccccc2)nc2c(Cl)cccc2c1C(=O)OCC(=O)c1ccc(F)cc1 21.3%
CCOC(=O)CSc1nc2cc3c(cc2c(=O)n1Cc1ccc(C(=O)NCCc2ccc(OC)c(OC)c2)cc1)OCO3 -4.86%
Cc1ccc(NC(=O)Cn2cc(S(=O)(=O)Cc3ccc(F)cc3)c3ccccc32)cc1Cl -48%
CCOc1ccccc1C(=O)N(Cc1sccc1C)C1CCS(=O)(=O)C1 (centres undefined) -9.69%
COc1ccc(-c2cc(C(F)(F)F)nc(SCC(=O)NCCc3ccccc3)n2)cc1 -9.04%
N#Cc1c(-n2ncnc2-c2ccc(F)cc2)sc2c1CCCCC2 -61.7%
O=C(CSCc1cnn(-c2ccccc2)c1-n1cccc1)NCc1cccc(Cl)c1 -40.3%
CCCSc1ncc(Cl)c(C(=O)Nc2sc3c(c2C(=O)OC)CCCC3)n1 -9.01%
O=C(C1CCN(S(=O)(=O)c2ccc(Br)s2)CC1)N1CCN(c2cccc(C(F)(F)F)c2)CC1 -41.1%
CSc1ccc(CCNC(=O)c2ccc3c(Cl)c4c(nc3c2)CCCC4)cc1 -38.9%
CCCSc1ncc(Cl)c(C(=O)Nc2nc3ccc(C)cc3s2)n1 -7.55%
COc1ccc(S(=O)(=O)Nc2cc(-c3c(O)ccc4ccccc34)c(O)c3ccccc23)cc1 -15.3%
CCc1ccccc1NC(=O)Cn1nc(C(F)(F)F)c2c1CCC2 -13.1%
Cc1cc(C)c2c(CC(=O)Nc3ccccc3C(F)(F)F)coc2c1 -4.07%
COc1ccc(S(=O)(=O)c2c(O)c3ccc(C(=O)Nc4ccccc4)cc3[nH]c2=O)cc1 -25.1%
Cc1cccc(NC(=O)C2CCN(c3nnc(C)c4c(C)n(-c5ccccc5)nc34)CC2)c1C -5.46%
Cc1ccc(Cl)cc1NC(=O)C1CCCN(c2cnccn2)C1 (centres undefined) 5.83%
O=C(NCc1ccccc1)C(=O)NCC(c1ccco1)S(=O)(=O)c1cccs1 (centres undefined) -4.1%
CCc1nn(CC(=O)Nc2cccc(C(C)=O)c2)c(=O)c2cc3sccc3n12 -26.5%
CCS(=O)(=O)c1ncc(Cl)c(C(=O)NCc2ccc(OC)cc2)n1 -93.7%
CN(C)c1ccc(C(CNS(=O)(=O)c2ccc(Cl)cc2)N2CCOCC2)cc1 (centres undefined) -21.8%
CCOC(=O)c1ccccc1NC(=O)Cn1c(=O)n(Cc2nc(C)no2)c(=O)c2ccccc21 -20.4%
CN(c1ccccc1C(=O)O)S(=O)(=O)c1ccc2[nH]c(=O)oc2c1 -9.43%
O=C(CCn1c(=O)c2ccccc2n(Cc2cccc(Cl)c2)c1=O)NCCc1ccccc1 -10.6%
Cc1cccc(C)c1NC(=O)Cn1nnc(C(=O)NCc2ccc(F)cc2)c1N 5.35%
Cc1ccccc1CCNC(=O)C1CCN(S(=O)(=O)c2ccc3c(ccn3C)c2)CC1 -9.82%
O=C(NCC1(c2ccccc2)CCCC1)C(=O)Nc1cccc(Br)c1 -4.46%
Cn1c(=O)c2c(nc(Oc3ccccc3Cl)n2Cc2ccc(C#N)cc2)n(C)c1=O -11.7%
COc1cc(Nc2ncc3c(n2)CCN(Cc2cccc(C)c2)C3)cc(OC)c1 -20.1%
Cn1nnnc1SCCCNCc1cccc(OCc2ccc(F)cc2)c1 -23.1%
Cc1oc2c(C)c3oc(=O)c(CC(=O)N4CCCCC4)c(C)c3cc2c1C -8.78%
CCc1nn(C(C)C(=O)N2CCN(c3ccccc3)CC2)c(=O)c2cc3occc3n12 (centres undefined) -30.6%
CCCN(CCC)C(=O)C(Cc1ccccc1)NS(=O)(=O)c1ccc2c(c1)c(=O)n(C)c(=O)n2C (centres undefined) -13.7%
CSc1ccc(-c2nc3cccc(C)n3c2Nc2ccc(Cl)cc2)cc1 -29.5%
COc1ccccc1N1C(=O)N(CC(=O)C(C)(C)C)c2ccccc2S1(=O)=O -23.1%
CCCCC(CC)COC(=O)c1ccc(N(C)C)cc1 (centres undefined) 2.75%
COc1cc(O)c(C(=O)c2ccccc2)cc1S(=O)(=O)O 3.32%
CN(C)CCNC(=O)c1ccc(-c2nn(C)c(=O)c3ccccc23)cc1 -17.2%
O=C1CN(C(=O)COc2ccc(Cl)cc2Cl)C(c2ccccc2)c2cc(F)ccc2N1 (centres undefined) -38.9%
Nc1cccc2c1C(=O)N(C1CCC(=O)NC1=O)C2=O (centres undefined) -8.71%
COc1cc(OC)cc(OC)c1 0.711%
O=C(O)Cc1ccccc1Oc1ccc(Cl)cc1Cl -7.58%
CCOc1ccc(CCNC(=O)c2nn(C)c3c2CSc2ccccc2-3)cc1 -18.9%
O=C(O)c1ccc(NC(=O)c2cc(S(=O)(=O)N3CCCCC3)c(Cl)cc2Cl)cc1 -17.5%
Cc1cccc(C(=O)NNc2ncnc3c2cnn3-c2ccc(C)cc2C)c1 8.19%
CCOc1ccccc1CNC(=O)CCCn1ccc2cc(S(=O)(=O)N3CCCC3)ccc21 -18.5%
COc1cccc(C(=O)Nc2nnc(S(=O)(=O)N3CCCC3)s2)c1 -2.72%
CC(C)c1ccc(S(=O)(=O)c2cnc(SCC(=O)Nc3ccc4c(c3)OCCO4)[nH]c2=O)cc1 -5.83%
Cc1ccc(OCC(=O)Nc2nnc(S(=O)(=O)N3CCCCCC3)s2)cc1 -15.8%
O=C(NCc1ccc(F)cc1)C1(c2cccs2)CCOCC1 -18.6%
COc1cc(Nc2nc3c(S(=O)(=O)c4ccc(C)c(C)c4)nnn3c3ccsc23)cc(OC)c1 -16.2%
CCOC(=O)c1c(NC(=O)C2c3ccccc3Oc3ccccc32)sc(C)c1CC -23.3%
CCn1c(=O)cc(OCC(=O)N(C)c2cc(Cl)ccc2C)c2ccccc21 -15.7%
COC(=O)c1ccccc1NC(=O)N1CCC(N2CCN(Cc3ccc(F)cc3)C(=O)C2=O)CC1 -4.26%
CCOc1ccccc1NC(=O)CSc1nccn1-c1cccc(C)c1 -21%
COc1ccc2c(Sc3ccc(C)cc3)c(C(=O)NC(C)C)[nH]c2c1 6.31%
CCOc1ccc(-n2c(=O)c3c(C)c(C)sc3n(CC(=O)NCCc3ccccc3)c2=O)cc1 11.8%
Cc1ccc(S(=O)(=O)C(CNC(=O)C(=O)NCCc2ccccc2)c2cccs2)cc1 (centres undefined) -46.3%
O=c1oc2ccccc2c(N2CCN(c3ccccc3F)CC2)c1CN1CCCC1 -13.6%
CCOc1ccc(C2CC(=O)c3c([nH]c(C(=O)OCC4CCCCC4)c3C)C2)cc1 (centres undefined) -9.86%
COCCCNC(=O)c1nn(-c2ccc(C)cc2)nc1CO -16.3%
COc1cccc(NC(=O)C(Cc2ccccc2)NS(=O)(=O)c2ccc3c(c2)c(=O)n(C)c(=O)n3C)c1 (centres undefined) -14.3%
Cc1cccc(CNC(=O)Cn2ccc3cc(S(=O)(=O)N4CCCCCC4)ccc32)c1 -31.8%
CCCc1cc(=O)oc2cc(C)c3c(-c4ccccc4)coc3c12 -19.5%
O=C(CN1C(=O)CSc2ccc(S(=O)(=O)N3CCCC3)cc21)Nc1cccc(Cl)c1 -29.5%
Cc1ccc(NC(=O)CC2Nc3ccccc3NC2=O)cc1C (centres undefined) -11.9%
CCCNC(=O)CN1C(=O)CSc2ccc(S(=O)(=O)N3CCC(C)CC3)cc21 -18.7%
Cc1ccc(Nc2c(C(C)C)c(C)c(C#N)c3nc4ccccc4n23)cc1 8.5% [at 11.5 µM, percent change from vehicle, -100% = no light]
CCN(CC)C(=O)C1CCN(S(=O)(=O)c2c(C)noc2/C=C/c2cccc(OC)c2)CC1 -21.4%
CCC(C)NC(=O)CCCc1nnc2n(CC(C)C)c(=O)c3sccc3n12 (centres undefined) -12.4%
CCOc1ccc(NC(=O)c2cc(S(=O)(=O)NC3CCCCCC3)ccc2F)cc1 -24.6%
Cc1ccccc1-c1noc(-c2ccc(NCc3ccco3)c([N+](=O)[O-])c2)n1 3.44%
COc1ccc2c(c1)CCc1c(C(=O)Nc3c(C)nn(Cc4ccccc4)c3C)noc1-2 -30.9%
O=c1cc(-c2ccc(F)cc2)nc(SCc2nc(-c3ccc(Cl)cc3)no2)[nH]1 -4.88%
CCOC(=O)c1c(C)[nH]c(C)c1S(=O)(=O)NCC(=O)NCc1cccc(C)c1 -7.3%
CCOC(=O)c1ccc(CN(Cc2ccc(Br)cc2)S(=O)(=O)c2cccc(Cl)c2C)cc1 -21.2%
COc1cc(C(=O)NCC(c2ccc(Cl)cc2)N2CCOCC2)cc(OC)c1OC (centres undefined) -9.57%
CCOC(=O)CC(NC(=O)Cn1nnc(-c2ccccc2F)n1)c1ccccc1Cl (centres undefined) -24.7%
CCc1ccc(C2C(C(=O)Nc3ccccc3C)=C(C)Nc3nc(SCc4cccc(OC)c4)nn32)cc1 (centres undefined) 5.2%
CC(=O)c1ccc(NC(=O)CSc2nc(=O)n(Cc3ccncc3)c3c2CCC3)cc1 -13.4%
CCS(=O)(=O)c1ncc(N(Cc2ccco2)Cc2ccccc2F)c(C(=O)Nc2cccc(Cl)c2)n1 -19%
Cc1ccc(N2CCN(C(=O)c3cn(C)c4ccc(S(=O)(=O)N(C)C)cc4c3=O)CC2C)cc1 (centres undefined) -10.6%
Cc1ccccc1C(=O)N(Cc1sccc1C)C1CCS(=O)(=O)C1 (centres undefined) -17.1%
COc1ccc(CCNC(=O)c2ccc(Cn3c(=O)c4ccccc4n(CC(=O)C(C)(C)C)c3=O)cc2)cc1OC -23.8%
COc1cc(NC(=O)CCn2nc(C)c(S(=O)(=O)N3CCCCC3)c2C)cc(OC)c1OC -7.24%
CC1CCCCN1CCCNC(=O)CN1C(=O)c2cccnc2Oc2ccccc21 (centres undefined) -11.9%
COc1ccccc1NC(=O)C1=C(C)Nc2c(C(=O)Nc3cccc(C)c3)cnn2C1c1ccccc1Cl (centres undefined) -14.6%
Cc1ccc(Cl)cc1NC(=O)CCCn1c(=O)c2cccn2c2cccnc21 -4.18%
